Paper PMC6919601, “Identification of Plasmodium dipeptidyl aminopeptidase allosteric inhibitors by high throughput screening” (PLoS ONE, 2019)
In all, about 110,000 compounds went through this assay and about 230 (0.21%) showed an effect of 50% or more. Some of the results follow.

molecular target: DPAP1 (Plasmodium falciparum, UniProt Q8IIJ9); assay: primary screen, percent inhibition; read by cleavage of a fluorogenic dipeptide substrate; higher = more effect of the substance; design: species or system P. falciparum D10 trophozoite lysates; single well
Sequence (Q8IIJ9 whole entry, looked up): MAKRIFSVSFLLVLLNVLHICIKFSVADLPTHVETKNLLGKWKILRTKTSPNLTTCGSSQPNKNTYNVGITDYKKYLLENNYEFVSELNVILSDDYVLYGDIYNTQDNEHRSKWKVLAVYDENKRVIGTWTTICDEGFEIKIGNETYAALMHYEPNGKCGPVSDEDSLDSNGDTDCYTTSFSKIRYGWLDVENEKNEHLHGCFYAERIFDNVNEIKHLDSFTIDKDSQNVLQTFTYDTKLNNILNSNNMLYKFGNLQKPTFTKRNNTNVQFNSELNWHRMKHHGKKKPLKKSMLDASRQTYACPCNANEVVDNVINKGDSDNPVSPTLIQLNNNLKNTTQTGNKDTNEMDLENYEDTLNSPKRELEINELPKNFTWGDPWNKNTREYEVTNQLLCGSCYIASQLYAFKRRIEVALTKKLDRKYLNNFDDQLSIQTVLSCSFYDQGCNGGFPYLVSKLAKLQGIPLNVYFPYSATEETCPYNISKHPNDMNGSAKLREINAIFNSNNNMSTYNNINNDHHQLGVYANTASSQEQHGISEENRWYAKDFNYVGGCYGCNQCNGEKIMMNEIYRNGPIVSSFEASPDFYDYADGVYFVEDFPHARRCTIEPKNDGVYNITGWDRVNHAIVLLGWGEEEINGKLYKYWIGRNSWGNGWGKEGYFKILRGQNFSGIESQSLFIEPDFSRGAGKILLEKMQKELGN
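Further: 30 min substrate incubation versus DMSO and 10 µM JCP410 controls.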

Row | Structure (SMILES) | % Inhibition @ 10 uM [%]
1 | Cc1c(C(=O)NCc2ccccn2)oc2ccc(S(=O)(=O)N3CCC4(CC3)OCCO4)cc12 | -0.972
2 | COc1ccc(NC(=O)C(=O)NCCCO)c(OC)c1 | 0.565
3 | CC1=C(C(=O)N2CCC(Cc3ccccc3)CC2)C2(CCCCC2)OC1=O | -0.138
4 | C#CCN1C(=O)S/C(=C\c2ccc(OCC(=O)O)cc2)C1=O | 2.48
5 | CCCOc1ccc(C(=O)Nc2ccccc2C(=O)OC)cc1 | 3.29
6 | CS(=O)(=O)N(CC(=O)NC1CCCC1)c1cccc(Cl)c1 | -0.173
7 | CC1=C(C(=O)c2ccccc2)C(NC(=O)c2cccnc2)(C(F)(F)F)C(=O)N1CCc1ccccc1 (stereo not shown) | -2.63
8 | COc1cccc(N2C(=O)CC(N3CCN(c4ccccn4)CC3)C2=O)c1 (stereo not shown) | -3.9
9 | O=C(O)C1C2C=CC(C3CC23)C1C(=O)Nc1ccccc1 (stereo not shown) | -7.68
10 | CN1CCC(N2CCN(c3ccccc3Cl)CC2)CC1 | 1.57
11 | CCOC(=O)N1CCC(N[C@H]2CC[C@H](O)CC2)CC1 | -7.35
12 | CCc1c(C)nc2c(-c3ccccc3)cnn2c1O | 3.16
13 | CCOC(=O)c1c(C)[nH]c(C)c1S(=O)(=O)NCCC1=CCCCC1 | -5.36
14 | CCCCCn1c(SC/C=C(/C)Cl)nc2c1c(=O)[nH]c(=O)n2C | 2.38
15 | Cc1ccc(C2OC(=O)c3ccccc32)cc1 (stereo not shown) | 18.3
16 | Cc1nnc(N2CCCC(C(=O)NCCCOC(C)C)C2)c2nn(-c3ccc(Cl)cc3)c(C)c12 (stereo not shown) | 12.1
17 | COc1ccc(NC(=O)Cc2ccccc2)cc1OC | 0.247
18 | Cc1cc(C)c2c(n1)SCC(=O)N2CC(=O)NCCC1=CCCCC1 | -4.15
19 | C=CCNC(=O)c1cc(-c2ccc(OC)cc2)on1 | 0.723
20 | Cc1ccccc1Cn1cc(CCC(=O)NC2CC2)c2ccccc21 | -4.65
21 | COc1ccc2cc3cc(C(=O)NCc4ccc(F)cc4Cl)oc3nc2c1 | -1.54
22 | COC(=O)c1cc2ccsc2n1Cc1nc(-c2ccc(Cl)cc2)oc1C | -2.34
23 | COc1ccc(OC)c(CCNC2=NS(=O)(=O)C(c3ccc(C)cc3)=C2C)c1 | 0.623
24 | CC1=C(C(N)=O)C(c2ccc(OCc3ccccc3)cc2)n2nc(CCCO)nc2N1 (stereo not shown) | 1.96
25 | O=C(c1ccc(COc2ccc3ccccc3c2)o1)N1N=C(C(F)F)CC1(O)C(F)F (stereo not shown) | 1.43
26 | O=C(NCc1ccccn1)c1cnc2sccn2c1=O | -2.29

Row | Structure (SMILES) | % Inhibition @ 10 uM [%]
27 | Cc1cc(C(F)(F)F)c2c(n1)sc1c(=O)[nH]c(=O)[nH]c12 | 4.61
28 | Cn1nc(C(=O)Nc2ccc3c(c2)OCO3)cc1C(=O)O | 0.214
29 | Nc1ccc(S(=O)(=O)N2CCOCC2)cc1 | -0.856
30 | Cc1nnc(N2CCC(C(=O)NCCC(C)C)CC2)c2nn(-c3ccccc3)c(C)c12 | 8.13
31 | O=C(CS(=O)(=O)c1ccccc1)Nc1ccc(S(=O)(=O)Nc2ccccn2)cc1 | 4.67
32 | CC(C)CNC1CC(=O)N(c2ccc(Cl)cc2)C1=O (stereo not shown) | -2.8
33 | Cc1nc2c3ccccc3n3c(CCCC(=O)N4CCC(C(N)=O)CC4)nnc3n2n1 | -1.21
34 | Cc1cc(C)nc(NS(=O)(=O)c2ccc(NC(=O)NC(=O)c3ccccc3)cc2)n1 | 0.00784
35 | NC(=O)c1c(NC(=O)c2cccs2)sc2c1CCCC2 | 0.658
36 | O=C(Nc1nnc(-c2ccccc2)s1)c1ccc(F)cc1 | 5.94
37 | COCc1nc2ccccc2[nH]1 | 1.72
38 | Cc1ccc(-n2nc3c(c2NC(=O)COc2ccccc2)CS(=O)(=O)C3)cc1 | -1.12
39 | O=C(Nc1ccccc1C(=O)O)c1cccs1 | -0.969
40 | Cc1ccc(-c2cc(N)n(S(=O)(=O)c3ccc(F)cc3)n2)cc1 | 1.15
41 | Cc1nc(SCc2ccccc2)c(C#N)c(C)c1C | 34.7
42 | Cc1ccccc1CNC(=O)Cn1ccc2cc(S(=O)(=O)N3CCCC3)ccc21 | -0.177
43 | CCOC(=O)c1cc(-c2ccc(OC)c(S(=O)(=O)NCc3ccc(Cl)cc3)c2)on1 | -10.1
44 | COc1ccccc1-c1nn2c(C3COc4ccccc4O3)nnc2s1 (stereo not shown) | 7.5
45 | O=C(CCCOc1ccc(Cl)cc1Cl)NCc1ccccn1 | -3.71
46 | CN1C(=O)c2ccc(N3C(=O)c4ccc([N+](=O)[O-])cc4C3=O)cc2C1=O | -4.01
47 | CC(C)CC(NC(=O)Cc1ccccc1)P(=O)(O)O (stereo not shown) | 0.634
48 | O=C(c1nn2c(C(F)(F)F)cc(-c3ccccc3)nc2c1Cl)N1CCCCC1 | 1.67
49 | Cc1ccc(-c2csc3ncnc(N4CCOCC4)c23)cc1 | -8.18
50 | CCCCNC(=O)C1CCC(CNc2nc(S)nc3ccccc23)CC1 (stereo not shown) | 4.49
51 | CCc1nc2ccc(C(=O)NC3CCCCCC3)cc2nc1CC | 3.42
52 | COC(=O)c1c(NC(=O)COc2cc(C)c(Cl)c(C)c2)sc(C)c1C | -4.7
